# Read counts are not given, so values of variants with three or more changes are uncertain.
# B1: LINE1-mini (parent)
# chain: GGCAGAGCUCAACACAGCGUGGCAAAGUGGCUGUGGCUAGACUGCC
# Variants of: B1
# Experiment: self-cleavage, relative activity (ratio to wild type); higher = more cleavage; in vitro, sequencing; the parent is a self-cleaving ribozyme
row,Variant,self-cleavage
1,GGCAGAGCUCAAAUCAGCGUAGCAAAGUGGCUGUGGCUAGACUGCA [C13A A14U G21A C46A],0.09
2,GGCAGAGCUCAAAAUAGCGUGGCAAAGUGGCUGUGGCUACACUGCC [C13A C15U G40C],0.18
3,GGCAGAGCUCAAAACAGCGUGGCACAGUAGCUGUGGCUAGACUGCC [C13A A25C G29A],0.01
4,GGCAGAGCUCAAAAAAGCGUGGCAAUGUGGCUGUGGCUAGAUUGCC [C13A C15A A26U C42U],0.01
5,GGCAGAGCUCAAAACGGCGUUGCAAAGUGGCUGUGGCUAGACUGCC [C13A A16G G21U],0.02
6,GGCAGAGCUCAAAACCGCGUGGCAAAGUGCCUGUGGCUAGACGGCC [C13A A16C G30C U43G],0
7,GGCAGAGCUCAAAACGGCGUGGUAAAGUGGCUGUGGCUAGACUGCG [C13A A16G C23U C46G],0.02
8,GGCAGAGCUCAAAACAGCGUGGCAAAGUGGCUGUGGCUAGAAUUGC [C13A C42A G44U C45G],0.01
9,GGCAGAGCUCAAAACAGUGUGGCAAAGUGUCUGUGACUAGGCUGCC [C13A C18U G30U G36A A41G],0.01
10,GGCAGAGCUCAAAACAGCGUGGGAAAAUGGCAGUGGCCAGACUGCC [C13A C23G G27A U32A U38C],0.02
11,GGCAGAGCUCAAAACAGCGUGCCAAAGUGGGUGUGGCCAGACUGCU [C13A G22C C31G U38C C46U],0.06
12,GGCAGAGCUCAAACCAGCGUGGCAAAGUGGCUGUGGCUAGAGUGCC [C13A A14C C42G],0.04
13,GGCAGAGCUCAAAACAGCGUGGCAAAGUGGCUGUGGCUAGCAUGCG [C13A A41C C42A C46G],0
14,GGCAGAGCUCAAAACUGCGUGGCAAAGUGGCUGUGGCUAGACUGCU [C13A A16U C46U],0.09
15,GGCAGAGCUCAAAACAGCGUGGCAAAGUGGCUGUGGACAGACUGCC [C13A C37A U38C],0.04
16,GGCAGAGCUCAAAACAGCGUGUCAAAGUGGCUGUGUCUAGACUGCC [C13A G22U G36U],0.16
17,GGCAGAGCUCAAAACAACGUGCCAAAGUGGCUGUGGCUAGACUGCC [C13A G17A G22C],0
18,GGCAGAGCUCAAAACAGCGUGGCCAAGUGGCUGUGGCUAGACUCCC [C13A A24C G44C],0.02
19,GGCAGAGCUCAAAACAGCGUGGCAAAGUGGAUGUGUCUAGACUGCC [C13A C31A G36U],0.23

row,Variant,self-cleavage
1,GGCAGAGCUCAAAACAAGGUGGCAAACUGGCUGUGGCUAGACUGCC [C13A G17A C18G G27C],0.03
2,GGCAGAGCUCAAAACAGCGUGGCAAAGUCGCUGUCGCCAGAUUGCC [C13A G29C G35C U38C C42U],0.02
3,GGCAGAGCUCAAAACAGCGUAGCAAACUGGCUGUGGCUCGACUGCC [C13A G21A G27C A39C],0.06
4,GGCAGAGCUCAAAAGAGCGUGGCAAAGUGGCUGUGGCUAAACUGCC [C13A C15G G40A],0.02
5,GGCAGAGCUCAAAACAGCGUGGCAAAGUGGCUCUGGCAAGGCUGCC [C13A G33C U38A A41G],0.01
6,GGCAGAGCUCAAAACAGCGUGGCAAAGUUACUGUGGUUAGACUGCC [C13A G29U G30A C37U],0.03
7,GGCAGAGCUCAAAAUAGCGUGGCAAAGUGGCAGUGGCUCGGCUGCC [C13A C15U U32A A39C A41G],0.26
8,GGCAGAGCUCAAAAUACCGUGGCAAAGUAGCUGUGGCUAGACUGCC [C13A C15U G17C G29A],0.25
9,GGCAGAGCUCAAACCAGCGUGGCAAAGCGGCUGUGGCUAGAUUGCC [C13A A14C U28C C42U],0.1
10,GGCAGAGCUCAAAACAGCGUGGAAAAGUGGCUGUGACUAGACUACC [C13A C23A G36A G44A],0.49
11,GGCAGAGCUCAAAACACCGUGGCAAUGUGGCUGUGGCUAGACUGCC [C13A G17C A26U],0.02
12,GGCAGAGCUCAUCACAGCGUGGCAAAGUGGCUGUGGCUAGACCGAC [A12U U43C C45A],0.05
13,GGCAGAGCUCAAAACCGCGUGGCAAAGUGGCUGUGGCUAGACUGGC [C13A A16C C45G],0.07
14,GGCAGAGCUCAAAACAGAGUGGCAAAGUGGUUGUGGCUAGACUGCC [C13A C18A C31U],0.03
15,GGCAGAGCUCAAAACAACGUGGCAAAGUGGCCGUGGCUAGACUGCC [C13A G17A U32C],0.02
16,GGCAGAGCUCAAAACAGCGUGGCGAAGUGGCUGUGGCUAGACUCCC [C13A A24G G44C],0.03
17,GGCAGAGCUCAAAACAGCGUGGCGAAGUGGCUGUGGCUAGACUACC [C13A A24G G44A],0.03
18,GGCAGAGCUCAAAAGAGCGUGGCAAAGUGGCUGUGGCUAGAAUGCC [C13A C15G C42A],0.01
19,GGCAGAGCUCAAAAAAGCGUGGCAAAGUGGCAGUGGCUAGACUGCC [C13A C15A U32A],0.02

row,Variant,self-cleavage
1,GGCAGAGCUCAAAUCAGCGUGGCAAAGUUGCUGUGGCUAGACUGAC [C13A A14U G29U C45A],0.02
2,GGCAGAGCUCAAAACAGCGUGGUAAAGUGGCUGUGGCUAGUCUGCC [C13A C23U A41U],0.38
3,GGCAGAGCUCAAAACAGCGUGGCGAAGUGGCUGCGGCUAGUCUGCC [C13A A24G U34C A41U],0.02
4,GGCAGAGCUCAAAACCGCGUGGCAAACUGGCUGUCGCUAGACUGCC [C13A A16C G27C G35C],0.15
5,GGCAGAGCUCAAAACAUCCUAGCAAAGUGGCUGUGGCUAGACUGCC [C13A G17U G19C G21A],0.05
6,GGCAGAGCUCAAAAAAGCUUGGCAAAGUGGCUGUGGCUAGACUGCC [C13A C15A G19U],0.06
7,GGCAGAGCUCAAAGCAGCGUGGCAAAGUAGCUGUGGCUAGACAGCC [C13A A14G G29A U43A],0.05
8,GGCAGAGCUCAAAAGAGCGUGGCAAAGUGGCUGUGGCUAGACUGUC [C13A C15G C45U],0.03
9,GGCAGAGCUCAAAACAGCGUGGCAAAGUGCCUCUGGCUAGACUGCC [C13A G30C G33C],0.01
10,GGCAGAGCUCAAAGCAGCGUGGCAGAGUAGCUGUGGCUAGACUGCC [C13A A14G A25G G29A],0.07
11,GGCAGAGCUCAAAACAGCAUUGCAAAGUGGCUGUGGCUAGACUGCC [C13A G19A G21U],0.07
12,GGCAGAGCUCAAAAUAGCUUGGCGAAGUGGCUGUGGCUAGACUGUC [C13A C15U G19U A24G C45U],0.08
13,GGCAGAGCUCAAAACAGUGUGGCAAAGUGCCUGUGGCUAGACUGCC [C13A C18U G30C],0.05
14,GGCAGAGCUCAAAACAGCUUGGCAAAGUGGCUGUGGUUAGACUGCC [C13A G19U C37U],0.07
15,GGCAGAGCUCAAAAUAGCGUGACAAAGUGCAUGUAGCUAGACUGCC [C13A C15U G22A G30C C31A G35A],0.14
16,GGCAGAGCUCAAAACCGCGUGGCAAAGUGGCUGUGGCUAGAAUGCC [C13A A16C C42A],0.04
17,GGCAGAGCUCAAAACAUCGUGGCAAAGUGGUUGUCGCUAGACUGCC [C13A G17U C31U G35C],0
18,GGCAGAGCUCAAAACAGCGUGGCAAGGUGGCUCUGGCUAGACUGCC [C13A A26G G33C],0.03

# — the RNAGym collection of RNA variant scans (doi:10.7554/elife.90254)
